The record followed here is publication PMC12820563.

The list shows a part of the results. The list includes weakly bound sequences.

This assay has as its target T1, MBP-FoxP3dN (UniProt Q99JB6).
T1 sequence: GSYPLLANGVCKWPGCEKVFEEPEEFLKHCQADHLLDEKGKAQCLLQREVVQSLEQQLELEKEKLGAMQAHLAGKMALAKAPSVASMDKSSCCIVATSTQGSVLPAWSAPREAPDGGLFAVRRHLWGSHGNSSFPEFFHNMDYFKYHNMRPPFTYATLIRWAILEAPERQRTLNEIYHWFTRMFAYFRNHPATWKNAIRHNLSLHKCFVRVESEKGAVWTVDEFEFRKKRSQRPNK
Description: PD-seq (MBP pull-down with sequencing). The conditions noted are these: 20 mM Tris-HCl pH 7.5, 100 mM NaCl, 1.5 mM MgCl2, 0.4 uM protein, 0.1 uM dsDNA library, 30 min, room temperature, amylose pull-down; high values mean tight binding; double strand, one strand shown.
Take “GATGATTGTTCTCCCAGCTGATGAATTAGCCCTGTCGAGTAAACAAATTTTCCTAATCTTTCTGTTCAAGCGCCATCTAC”: the binding signal (RPM ratio (pull-down/input)) worked out at 0.264. With “GATGATTGTTCTCCCAGCTGATGAATTATCTTAGTCGAGTAAACAAATTTTCCTAATCTTTCTGTTCAAGCGCCATCTAC”, the binding signal (RPM ratio (pull-down/input)) turned out to be 0.342. The value for “GATGATTGTTCTCCCAGCTGATGAATTCAGTGAGTCGAGTAAACAAATTTTCCTAATCTTTCTGTTCAAGCGCCATCTAC” was 0.607; that for “GATGATTGTTCTCCCAGCTGATGAATTGCACGTTTCGAGTAAACAAATTTTCCTAATCTTTCTGTTCAAGCGCCATCTAC” was 1.13; that for “GATGATTGTTCTCCCAGCTGATGAATTAGGCTTGTCGAGTAAACAAATTTTCCTAATCTTTCTGTTCAAGCGCCATCTAC” was 2.5. The value for “GATGATTGTTCTCCCAGCTGATGAATTACAGCTATCGAGTAAACAAATTTTCCTAATCTTTCTGTTCAAGCGCCATCTAC” was 0.716. The value for “GATGATTGTTCTCCCAGCTGATGAATTATGCCTATCGAGTAAACAAATTTTCCTAATCTTTCTGTTCAAGCGCCATCTAC” was 2.91; that for “GATGATTGTTCTCCCAGCTGATGAATTGGTGCACTCGAGTAAACAAATTTTCCTAATCTTTCTGTTCAAGCGCCATCTAC” was 0.913.

Turning to “GATGATTGTTCTCCCAGCTGATGAATTTGCTTAGTCGAGTAAACAAATTTTCCTAATCTTTCTGTTCAAGCGCCATCTAC”, the binding signal (RPM ratio (pull-down/input)) was determined as 4.79.

For the sequence “GATGATTGTTCTCCCAGCTGATGAATTACTTCCATCGAGTAAACAAATTTTCCTAATCTTTCTGTTCAAGCGCCATCTAC”, the binding signal (RPM ratio (pull-down/input)) turned out to be 0.347. To “GATGATTGTTCTCCCAGCTGATGAATTCTGACGCTCGAGTAAACAAATTTTCCTAATCTTTCTGTTCAAGCGCCATCTAC” belongs 0.531; to “GATGATTGTTCTCCCAGCTGATGAATTTCGTGCGTCGAGTAAACAAATTTTCCTAATCTTTCTGTTCAAGCGCCATCTAC”, 0.73. To “GATGATTGTTCTCCCAGCTGATGAATTCCACCTCTCGAGTAAACAAATTTTCCTAATCTTTCTGTTCAAGCGCCATCTAC” belongs 0.486; to “GATGATTGTTCTCCCAGCTGATGAATTTTACTGTTCGAGTAAACAAATTTTCCTAATCTTTCTGTTCAAGCGCCATCTAC”, 0.655. Regarding “GATGATTGTTCTCCCAGCTGATGAATTGTGGGAATCGAGTAAACAAATTTTCCTAATCTTTCTGTTCAAGCGCCATCTAC”, the binding signal (RPM ratio (pull-down/input)) is 0.433. To “GATGATTGTTCTCCCAGCTGATGAATTGGCACACTCGAGTAAACAAATTTTCCTAATCTTTCTGTTCAAGCGCCATCTAC” belongs 0.478; to “GATGATTGTTCTCCCAGCTGATGAATTAGGGCCCTCGAGTAAACAAATTTTCCTAATCTTTCTGTTCAAGCGCCATCTAC”, 0.432; to “GATGATTGTTCTCCCAGCTGATGAATTTACCGTCTCGAGTAAACAAATTTTCCTAATCTTTCTGTTCAAGCGCCATCTAC”, 0.547.

For the sequence “GATGATTGTTCTCCCAGCTGATGAATTTGTCAATTCGAGTAAACAAATTTTCCTAATCTTTCTGTTCAAGCGCCATCTAC”, the binding signal (RPM ratio (pull-down/input)) worked out at 1.59. “GATGATTGTTCTCCCAGCTGATGAATTTAGACCATCGAGTAAACAAATTTTCCTAATCTTTCTGTTCAAGCGCCATCTAC”: the binding signal (RPM ratio (pull-down/input)) is 0.647.

As to “GATGATTGTTCTCCCAGCTGATGAATTGCTTGCGTCGAGTAAACAAATTTTCCTAATCTTTCTGTTCAAGCGCCATCTAC”, the binding signal (RPM ratio (pull-down/input)) amounted to 1.39.

On to “GATGATTGTTCTCCCAGCTGATGAATTTTTGATTTCGAGTAAACAAATTTTCCTAATCTTTCTGTTCAAGCGCCATCTAC”, for which the binding signal (RPM ratio (pull-down/input)) amounted to 0.408.

As for “GATGATTGTTCTCCCAGCTGATGAATTCTCTTGGTCGAGTAAACAAATTTTCCTAATCTTTCTGTTCAAGCGCCATCTAC”, the binding signal (RPM ratio (pull-down/input)) worked out at 0.273. The value for “GATGATTGTTCTCCCAGCTGATGAATTGAGGCCGTCGAGTAAACAAATTTTCCTAATCTTTCTGTTCAAGCGCCATCTAC” was 0.905; that for “GATGATTGTTCTCCCAGCTGATGAATTGTCCGCATCGAGTAAACAAATTTTCCTAATCTTTCTGTTCAAGCGCCATCTAC” was 0.901; that for “GATGATTGTTCTCCCAGCTGATGAATTTGGACTGTCGAGTAAACAAATTTTCCTAATCTTTCTGTTCAAGCGCCATCTAC” was 0.82. The value for “GATGATTGTTCTCCCAGCTGATGAATTTACGGCGTCGAGTAAACAAATTTTCCTAATCTTTCTGTTCAAGCGCCATCTAC” was 0.604. On to “GATGATTGTTCTCCCAGCTGATGAATTAGAGCTTTCGAGTAAACAAATTTTCCTAATCTTTCTGTTCAAGCGCCATCTAC”, for which the binding signal (RPM ratio (pull-down/input)) is 0.825. The value for “GATGATTGTTCTCCCAGCTGATGAATTCCTGCGTTCGAGTAAACAAATTTTCCTAATCTTTCTGTTCAAGCGCCATCTAC” was 1.27. To “GATGATTGTTCTCCCAGCTGATGAATTCACCAAATCGAGTAAACAAATTTTCCTAATCTTTCTGTTCAAGCGCCATCTAC” belongs 0.206; to “GATGATTGTTCTCCCAGCTGATGAATTGAAGTCTTCGAGTAAACAAATTTTCCTAATCTTTCTGTTCAAGCGCCATCTAC”, 0.312; to “GATGATTGTTCTCCCAGCTGATGAATTCGGGCGATCGAGTAAACAAATTTTCCTAATCTTTCTGTTCAAGCGCCATCTAC”, 0.447.

In the case of “GATGATTGTTCTCCCAGCTGATGAATTATACACGTCGAGTAAACAAATTTTCCTAATCTTTCTGTTCAAGCGCCATCTAC”, the binding signal (RPM ratio (pull-down/input)) was determined as 0.65. To “GATGATTGTTCTCCCAGCTGATGAATTATGGCGTTCGAGTAAACAAATTTTCCTAATCTTTCTGTTCAAGCGCCATCTAC” belongs 1.69.

With “GATGATTGTTCTCCCAGCTGATGAATTAGTGGGATCGAGTAAACAAATTTTCCTAATCTTTCTGTTCAAGCGCCATCTAC”, the binding signal (RPM ratio (pull-down/input)) worked out at 0.568. To “GATGATTGTTCTCCCAGCTGATGAATTGCTTTGATCGAGTAAACAAATTTTCCTAATCTTTCTGTTCAAGCGCCATCTAC” belongs 0.833; to “GATGATTGTTCTCCCAGCTGATGAATTTTCGTTTTCGAGTAAACAAATTTTCCTAATCTTTCTGTTCAAGCGCCATCTAC”, 0.532; to “GATGATTGTTCTCCCAGCTGATGAATTAGGGCGTTCGAGTAAACAAATTTTCCTAATCTTTCTGTTCAAGCGCCATCTAC”, 1.09. To “GATGATTGTTCTCCCAGCTGATGAATTAGATACTTCGAGTAAACAAATTTTCCTAATCTTTCTGTTCAAGCGCCATCTAC” belongs 0.637; to “GATGATTGTTCTCCCAGCTGATGAATTATTGGCTTCGAGTAAACAAATTTTCCTAATCTTTCTGTTCAAGCGCCATCTAC”, 0.759.

With “GATGATTGTTCTCCCAGCTGATGAATTTAGTGCCTCGAGTAAACAAATTTTCCTAATCTTTCTGTTCAAGCGCCATCTAC”, the binding signal (RPM ratio (pull-down/input)) was 1.57. The value for “GATGATTGTTCTCCCAGCTGATGAATTGCGTCCATCGAGTAAACAAATTTTCCTAATCTTTCTGTTCAAGCGCCATCTAC” was 1.16; that for “GATGATTGTTCTCCCAGCTGATGAATTAGCGCAGTCGAGTAAACAAATTTTCCTAATCTTTCTGTTCAAGCGCCATCTAC” was 0.646. The value for “GATGATTGTTCTCCCAGCTGATGAATTCCGATGTTCGAGTAAACAAATTTTCCTAATCTTTCTGTTCAAGCGCCATCTAC” was 1.38. The value for “GATGATTGTTCTCCCAGCTGATGAATTCTTGGCGTCGAGTAAACAAATTTTCCTAATCTTTCTGTTCAAGCGCCATCTAC” was 0.369; that for “GATGATTGTTCTCCCAGCTGATGAATTAGCATTATCGAGTAAACAAATTTTCCTAATCTTTCTGTTCAAGCGCCATCTAC” was 3.34; that for “GATGATTGTTCTCCCAGCTGATGAATTCACGACGTCGAGTAAACAAATTTTCCTAATCTTTCTGTTCAAGCGCCATCTAC” was 0.314. As for “GATGATTGTTCTCCCAGCTGATGAATTTTCTTCTTCGAGTAAACAAATTTTCCTAATCTTTCTGTTCAAGCGCCATCTAC”, the binding signal (RPM ratio (pull-down/input)) is 0.263. As to “GATGATTGTTCTCCCAGCTGATGAATTAGTAAGTTCGAGTAAACAAATTTTCCTAATCTTTCTGTTCAAGCGCCATCTAC”, the binding signal (RPM ratio (pull-down/input)) was determined as 0.726. The value for “GATGATTGTTCTCCCAGCTGATGAATTGTTCGCATCGAGTAAACAAATTTTCCTAATCTTTCTGTTCAAGCGCCATCTAC” was 1.1; that for “GATGATTGTTCTCCCAGCTGATGAATTAGCGTATTCGAGTAAACAAATTTTCCTAATCTTTCTGTTCAAGCGCCATCTAC” was 2.01; that for “GATGATTGTTCTCCCAGCTGATGAATTGTGGCGGTCGAGTAAACAAATTTTCCTAATCTTTCTGTTCAAGCGCCATCTAC” was 1.47. The value for “GATGATTGTTCTCCCAGCTGATGAATTACCTAATTCGAGTAAACAAATTTTCCTAATCTTTCTGTTCAAGCGCCATCTAC” was 0.371; that for “GATGATTGTTCTCCCAGCTGATGAATTACATCATTCGAGTAAACAAATTTTCCTAATCTTTCTGTTCAAGCGCCATCTAC” was 0.931. The value for “GATGATTGTTCTCCCAGCTGATGAATTAGACAGCTCGAGTAAACAAATTTTCCTAATCTTTCTGTTCAAGCGCCATCTAC” was 0.339; that for “GATGATTGTTCTCCCAGCTGATGAATTCATGGCATCGAGTAAACAAATTTTCCTAATCTTTCTGTTCAAGCGCCATCTAC” was 0.852. With “GATGATTGTTCTCCCAGCTGATGAATTACCAGGATCGAGTAAACAAATTTTCCTAATCTTTCTGTTCAAGCGCCATCTAC”, the binding signal (RPM ratio (pull-down/input)) was found to be 0.198. The value for “GATGATTGTTCTCCCAGCTGATGAATTGCTCTGCTCGAGTAAACAAATTTTCCTAATCTTTCTGTTCAAGCGCCATCTAC” was 0.464; that for “GATGATTGTTCTCCCAGCTGATGAATTTGGGTTTTCGAGTAAACAAATTTTCCTAATCTTTCTGTTCAAGCGCCATCTAC” was 0.71; that for “GATGATTGTTCTCCCAGCTGATGAATTGCAACCCTCGAGTAAACAAATTTTCCTAATCTTTCTGTTCAAGCGCCATCTAC” was 2.12. The value for “GATGATTGTTCTCCCAGCTGATGAATTCTCAATGTCGAGTAAACAAATTTTCCTAATCTTTCTGTTCAAGCGCCATCTAC” was 0.319; that for “GATGATTGTTCTCCCAGCTGATGAATTACTAACGTCGAGTAAACAAATTTTCCTAATCTTTCTGTTCAAGCGCCATCTAC” was 0.49; that for “GATGATTGTTCTCCCAGCTGATGAATTGCGAACCTCGAGTAAACAAATTTTCCTAATCTTTCTGTTCAAGCGCCATCTAC” was 0.619.
